Source: PMC4336329 (PLoS ONE, 2015)
Out of some 310,000 compounds screened, about 14,000 (4.5%) showed an effect of 50% or more. The effect is printed as a negative number. The list shows a part of the results.

target: human ether-à-go-go-related gene (hERG) potassium channel (human, UniProt Q12809); assay: primary screen, population patch clamp on CHO cells stably expressing hERG
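Further: peak tail current of the secondary pulse compared with the same well before compound.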

human ether-à-go-go-related gene (hERG) potassium channel, sequence (Q12809 whole entry, looked up): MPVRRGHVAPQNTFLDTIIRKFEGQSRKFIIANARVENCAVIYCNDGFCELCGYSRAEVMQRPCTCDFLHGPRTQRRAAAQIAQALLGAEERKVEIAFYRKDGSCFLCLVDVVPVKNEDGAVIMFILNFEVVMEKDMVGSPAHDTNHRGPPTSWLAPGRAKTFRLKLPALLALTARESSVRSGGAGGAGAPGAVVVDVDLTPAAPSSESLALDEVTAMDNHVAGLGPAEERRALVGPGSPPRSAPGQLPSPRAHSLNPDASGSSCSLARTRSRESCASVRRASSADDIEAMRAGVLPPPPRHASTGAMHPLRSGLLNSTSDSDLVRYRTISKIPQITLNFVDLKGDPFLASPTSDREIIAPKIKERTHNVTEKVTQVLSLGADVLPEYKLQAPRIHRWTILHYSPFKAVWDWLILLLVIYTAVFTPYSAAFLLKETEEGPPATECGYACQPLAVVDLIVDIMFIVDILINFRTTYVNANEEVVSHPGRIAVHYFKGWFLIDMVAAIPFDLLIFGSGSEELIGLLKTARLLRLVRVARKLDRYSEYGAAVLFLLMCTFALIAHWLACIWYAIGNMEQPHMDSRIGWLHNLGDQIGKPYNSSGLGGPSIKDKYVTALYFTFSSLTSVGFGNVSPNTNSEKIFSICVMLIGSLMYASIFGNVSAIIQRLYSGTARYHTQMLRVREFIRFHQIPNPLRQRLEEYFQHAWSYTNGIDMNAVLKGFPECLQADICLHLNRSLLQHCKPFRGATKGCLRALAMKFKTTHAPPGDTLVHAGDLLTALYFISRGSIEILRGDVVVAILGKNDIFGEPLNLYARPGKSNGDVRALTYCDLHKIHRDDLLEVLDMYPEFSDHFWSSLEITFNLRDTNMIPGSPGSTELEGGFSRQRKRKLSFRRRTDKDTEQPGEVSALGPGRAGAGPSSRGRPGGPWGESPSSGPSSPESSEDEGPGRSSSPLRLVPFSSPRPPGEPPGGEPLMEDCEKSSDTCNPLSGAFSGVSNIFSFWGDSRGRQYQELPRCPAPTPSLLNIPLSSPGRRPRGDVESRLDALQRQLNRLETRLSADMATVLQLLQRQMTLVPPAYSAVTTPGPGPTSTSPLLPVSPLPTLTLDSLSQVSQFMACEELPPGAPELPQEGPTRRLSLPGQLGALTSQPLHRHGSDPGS

| SMILES | hERG current change (%, negative = inhibition) at 10uM [%] |
| --- | --- |
| CC1=CCC2C(=O)N(c3ccccc3OC(=O)c3ccccc3F)C(=O)C2C1 (stereo not shown) | -9.24 |
| CC(O)Cc1cn(CC(=O)N2CCNCC2)nn1.Cl (stereo not shown) | 11.7 |
| CC(=O)Nc1nnc(SCc2ccc(F)cc2)s1 | 10.4 |
| Cc1ccc(/C=C2\SC(=S)N(CCCC(=O)Nc3nccs3)C2=O)cc1 | 15.7 |
| CCOc1ccccc1CNC(=O)c1nn(C)c2c1CS(=O)(=O)c1ccccc1-2 | -13.4 |
| Cc1cccc(-c2cc(=O)c(C(=O)O)cn2-c2ccc(F)cc2F)c1 | 3.55 |
| Fc1ccc(OCc2cc(-c3ccccc3)no2)cc1 | 27.2 |
| CCN(C(=O)COC(=O)CSc1ccc(F)cc1)c1c(N)n(Cc2ccccc2)c(=O)[nH]c1=O | 10.9 |
| N#Cc1cccc(C#N)c1Oc1ccc(N)cc1 | 4.37 |
| CCOc1ccc(CCNC(=O)COC(=O)CSc2ccccc2C)cc1OCC | -7.76 |
| COc1ccc(NC(=S)NCCSc2ccc(Cl)cc2)c(OC)c1 | 0.861 |
| O=C(Nc1cccc(C(F)(F)F)c1)/C(=C/c1ccco1)NC(=O)c1cccs1 | -28.4 |
| Cc1ccc(S(=O)(=O)N(C)C)cc1NC(=O)C(C)OC(=O)c1ccc2c(c1)OCCO2 (stereo not shown) | 0.0881 |
| N#C/C(=C/c1cc(Br)cs1)C(=O)NCC1CCCO1 (stereo not shown) | -14.8 |
| CC1=C(C(=O)OCc2ccc([N+](=O)[O-])cc2)N2C(=O)C(NC(=O)Cc3ccccc3)C2SC1 (stereo not shown) | 17.9 |
| CCOc1ccc2nc(SCC)[nH]c2c1.Cl | 2.89 |
| CN1CCN(c2ccc(S(=O)(=O)N3CCCCC3)cc2NC(=O)c2ccc3ccccc3c2)CC1 | -40.4 |
| CCC12CN3CC(CC)(CN(C1)C3c1ccc([N+](=O)[O-])o1)C2=O (stereo not shown) | -8.69 |
| CC(C)(C)OC(=O)NCCCC1=CC2=CC(=O)C(C)(OC(=O)c3ccc(Cl)nc3)C(=O)C2=CO1 (stereo not shown) | 4.94 |
| Cn1cccc1C(C#N)c1ccccc1C#N (stereo not shown) | 9.27 |
| COc1ccc(Cn2c(SCC#N)nc3ccc(N4CCOCC4)cc3c2=O)cc1 | 8.96 |
| CCn1nnnc1NC(=O)c1cccc(OC)c1 | 12.3 |

| SMILES | hERG current change (%, negative = inhibition) at 10uM [%] |
| --- | --- |
| O=C(O)COc1ccc(Br)cc1/C=N\Nc1ccccn1 | 15.2 |
| CCOC(=O)CN1C(=O)C(CC)Oc2ccccc21 (stereo not shown) | -4.1 |
| COc1ccc(Cc2nnc(SCC(=O)Nc3ccc(C)cc3C)[nH]c2=O)cc1 | -16.8 |
| Cc1oc2cc(O)ccc2c(=O)c1-c1ccccc1 | -4.39 |
| O=C(c1ccco1)N1CCN(Cc2cc(=O)c(OCc3cccc(Cl)c3)co2)CC1 | -74.7 |
| NC(=O)C(c1ccc(Cl)cc1)c1ccc(Sc2ccc(Cl)cc2)nn1 (stereo not shown) | -9.96 |
| O=C(CNCc1ccccc1)Nc1ccc(F)cc1 | -4.2 |
| O=C(O)c1ccc(CSc2nc3ccccc3c(=O)n2-c2ccccc2)cc1 | 5.27 |
| CCOC(=O)c1nn(-c2ccc(F)cc2)c(=O)c2c(N)scc12 | 6.57 |
| O=C(CSc1nnc(COc2ccccc2)o1)N1CCCCC1 | 16.9 |
| CC1CCN(C(=O)C2CCN(CCCc3ccccc3)CC2)CC1.O=C(O)C(=O)O | -62.3 |
| Cc1nnc(N/N=C/c2ccco2)n1N | 10.3 |
| O=C(Cn1ncc2c(=O)oc3ccccc3c21)N(Cc1ccco1)C1CCCCC1 | -42.7 |
| COc1ccc(NC(=O)CSc2ccccn2)cc1OC | 11.9 |
| CC(NC(=O)c1ccc(F)cc1)C(=O)NC1=NCCS1 (stereo not shown) | 24.2 |
| CCOc1ccccc1CN1CCN(Cc2cc(=O)c3ccccc3[nH]2)CC1CCO (stereo not shown) | -66.6 |
| COc1ccc(CNc2nc3nc(C)c(Cl)c(=O)n3[nH]2)cc1 | 13.2 |
| COc1ccc([C@@H]2[C@@H]3C(=O)N(C(C)(C)C)C(=O)[C@@H]3[C@]3(Cc4ccccc4)C(=O)N(c4cccc(F)c4)C(=O)N23)cc1 | 1.73 |
| COc1cc(OC)c(C(=O)Nc2ccncc2)cc1OC | 7.83 |
| O=c1c2ccccc2nc2n1CCCCN2 | 17.1 |
| COc1ccc(/C=C2/SC(=S)N(NS(=O)(=O)c3ccc(C)cc3)C2=O)cc1 | 27.9 |
| COC(=O)c1sc(S(=O)(=O)N2CCCCC2)c(C(=O)OC)c1C | -12 |

| SMILES | hERG current change (%, negative = inhibition) at 10uM [%] |
| --- | --- |
| CC(C)c1ccccc1OCC(O)CN1CCN(S(=O)(=O)c2ccc([N+](=O)[O-])cc2)CC1.O=C(O)C(=O)O (stereo not shown) | -11.1 |
| COCCn1c(SCC(=O)NCCc2ccccc2)nnc1-c1ccco1 | -14.8 |
| COc1cc(C)c(CNc2cc(C)cc(C)c2)cc1C | -0.483 |
| CC(C)(C)c1cccc(P(=O)(c2ccccc2)c2ccccc2)c1O | 10.2 |
| O=C1/C(=C/c2cccnc2)Oc2cc(OS(=O)(=O)c3ccccc3)ccc21 | -4.54 |
| COc1ccc(-c2c(C)n([O-])c3c([n+]2=O)CCCC3)cc1OC | 24.2 |
| COc1cccc(C(=O)CC(C(=O)O)c2ccc(F)cc2)c1 (stereo not shown) | 24.4 |
| CN(C)c1nc(N(C)C)nc(N(C#N)CCCl)n1 | 8.89 |
| CCN(CC)CCn1c(SCC(=O)NCc2ccccc2)nc2c(sc3ccccc32)c1=O | -29.3 |
| CC(C)CC(=O)Nc1cccc(-c2cn3ccsc3n2)c1 | 0.856 |
| O=C(c1ccccc1F)n1c2c(c3ccccc31)CCCC2 | 11.7 |
| CCN(C(=O)CSc1nnc(-c2ccccc2)o1)c1c(N)n(Cc2ccccc2)c(=O)[nH]c1=O | -4.39 |
| NC(=O)CC(NC(=O)c1ccccc1)c1ccc(NCCN2CCCCC2)c([N+](=O)[O-])c1 (stereo not shown) | 2.24 |
| CN(C)S(=O)(=O)c1ccc(-c2cn3ccccc3n2)cc1 | 10.6 |
| COc1ccc(NC(=O)CSCCc2ccccn2)cc1OC | 30.8 |
| CC(=O)OCC(=O)Nc1ccc(N=Nc2ccccc2)cc1 | 4.95 |
| Cc1n[nH]c(C)c1N=Nc1cc(Cl)ccc1Cl | 11.9 |
| Cn1c(SCC(=O)NC2CCCCC2)nnc1-c1cc2cc(Cl)ccc2o1 | 2.01 |
| CC1C2(C)OCC(C#N)(C(=N)O2)C1(C#N)C#N (stereo not shown) | 21 |
| COc1ccc(CNc2ccc(S(N)(=O)=O)cc2)cc1 | -52.6 |
| Cc1ccc(S(=O)(=O)N2CCOCC2)cc1C(=O)N1CCOCC1 | 28.4 |
| COc1cc(/C=N/NC(=O)c2cccs2)ccc1O | -2.17 |

| SMILES | hERG current change (%, negative = inhibition) at 10uM [%] |
| --- | --- |
| CN1CCN(S(=O)(=O)c2ccc3c(c2)NC(=O)CS3)CC1 | 13.3 |
| COc1ccc(C2CC(c3ccccc3)=NN2S(=O)(=O)c2ccc(C)cc2)c(OC)c1 (stereo not shown) | 5.4 |
| COc1ccccc1N1CCN(Cc2cc3c(cc2Br)OCCO3)CC1 | 0.273 |
| C=CCc1cccc(CNc2ccc(S(=O)(=O)Nc3nccnc3OC)cc2)c1O | -9.98 |
| O=C(CSc1ncn[nH]1)Nc1c(F)cc(F)cc1Br | 7.92 |
| CC(=O)c1cccc(NC(=O)CSc2nnc(-c3cccnc3)o2)c1 | -38.3 |
| O=C(NCC1(N2CCOCC2)CCCCC1)c1cccc(S(=O)(=O)N2CCc3ccccc3C2)c1 | 0.101 |
| CCN(CC)CCN1C(=O)C2C3c4ccccc4C(c4ccccc43)C2C1=O (stereo not shown) | -2.51 |
| COc1ccccc1NC(=O)N(Cc1ccccc1)C1=NCC(C)S1 (stereo not shown) | -3.8 |
| Cc1cc(CN2CCN(CCC#N)CC2)c(O)c(C2(C)CCCCC2)c1 | 4.69 |
| CCOc1ccccc1N1C(=O)CC(Nc2ccc(N3CCOCC3)cc2)C1=O (stereo not shown) | 0.942 |
| CC(C)(C)OC(=O)NCCc1nnc(S(=O)(=O)Cc2ccc(Cl)cc2Cl)o1 | -5.97 |
| CCOc1cc(C(=O)NCc2ccc(-c3nc4ccccc4o3)cc2)cc(OCC)c1OCC | -14.8 |
| Cc1cccc(C(=O)Nc2ccc(N3CCN(S(C)(=O)=O)CC3)cc2)c1 | 18.8 |
| COc1cccc(CN(C)C(=O)c2[nH]c(C)c(C(C)=O)c2C)c1OC | 8.06 |
| Cc1ccc2c(c1)C1CN(C)CCC1N2C(=O)c1cccc(S(=O)(=O)N(C)C)c1.c1ccccc1 (stereo not shown) | -25 |
| CC1CN(S(=O)(=O)c2ccc(C(=O)Nc3sccc3C(N)=O)cc2)CC(C)O1 (stereo not shown) | -10.8 |
| CCOC(=O)c1cc(NC(=O)NCc2ccco2)c(C)nc1C | 8.26 |
| COC(=O)c1ccc(Nc2cc(C)nc(-c3ccccc3O)n2)cc1 | 19.4 |
| NC(=O)NC(=O)CSc1cccc(C(F)(F)F)c1 | 9 |
| Cn1nnnc1SCC(=O)N1CCN(S(=O)(=O)c2ccccc2)CC1 | -3.87 |
| COc1ccc(NC(=O)/C=C/c2cccc(C(F)(F)F)c2)cn1 | 3.06 |
